{"source": "paper PMC7819943", "about": "“Rice protein-binding microarrays: a tool to detect cis-acting elements near promoter regions in rice”", "note": "The other results are listed elsewhere or left out."}
{"molecular_target": "T1, OsWOX13 (Oryza sativa, UniProt Q5QMM3 1-267)", "T1 sequence": "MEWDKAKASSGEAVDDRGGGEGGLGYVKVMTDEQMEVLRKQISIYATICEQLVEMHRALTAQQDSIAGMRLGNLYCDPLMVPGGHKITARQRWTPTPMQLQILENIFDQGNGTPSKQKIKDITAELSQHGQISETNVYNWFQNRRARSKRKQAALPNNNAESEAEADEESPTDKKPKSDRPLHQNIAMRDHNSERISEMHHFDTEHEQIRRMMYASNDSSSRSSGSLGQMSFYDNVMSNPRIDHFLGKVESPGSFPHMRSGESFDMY", "experiment": "protein-binding microarray (RPBM); PBS, 2% BSA, 51.3 ng/ul salmon testes DNA, 50 uM zinc acetate, 200 nM TF, 25 C, 1 h; high values mean tight binding", "settings": "protein: recombinant; tags: N-terminal polyhistidine and DsRed monomer fusion (pET32a); label: CyDye5-dUTP incorporated in the synthesized complementary strand; 3' TTTTT single-stranded linker to array surface; dsDNA, one strand shown", "method_in_brief": "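An Axon 4000B scanner gave the binding signal as per-feature fluorescence intensity in arbitrary units. This followed washing of a custom Agilent array that had been incubated for 1 h at 25 °C with 200 nM protein in PBS, 2% BSA, salmon testes DNA and 50 µM zinc acetate. The proteins were transcription factors fused at the N-terminus to polyhistidine and DsRed, expressed in E. coli BL21-CodonPlus and purified on Ni–NTA.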"}
{"sequence": "AGCCTAATTGCTTCATGATTTAACAATGTAGTGCTACAGTCGGAGTCACCTAGTGCAG", "binding signal": "52100 fluorescence intensity (a.u.)"}
{"sequence": "GCTTGATGACCAAGTATATATAAACATGTCAGTGATTATTCGGAGTCACCTAGTGCAG", "binding signal": "5670 fluorescence intensity (a.u.)"}
{"sequence": "ATGATTAATTATTATTTTAGTGATATGCGATATACTCGTGCGGAGTCACCTAGTGCAG", "binding signal": "65000 fluorescence intensity (a.u.)"}
{"sequence": "TTATACAATCAAATATTTAATTGTATACATGAAGCTTGTGCGGAGTCACCTAGTGCAG", "binding signal": "25400 fluorescence intensity (a.u.)"}
{"sequence": "TGGCTGTTAACTGGGAGATATAGATTCCTTTCCCGATTGACGGAGTCACCTAGTGCAG", "binding signal": "7080 fluorescence intensity (a.u.)"}
{"sequence": "AAATTTAAGTAATTATTAATTCTTTTCCTATCATTTGATTCGGAGTCACCTAGTGCAG", "binding signal": "7910 fluorescence intensity (a.u.)"}
{"sequence": "ATAATGAAACTATTCCAATCATAGATGAATTCTGTTGCTTCGGAGTCACCTAGTGCAG", "binding signal": "15500 fluorescence intensity (a.u.)"}
{"sequence": "ATAAACCAATATATTTATCAATCATAAGATTAATATTTTACGGAGTCACCTAGTGCAG", "binding signal": "7800 fluorescence intensity (a.u.)"}
{"sequence": "TGGTGCTTTTGTTATTGATGGAACAGTGGAAGATGGTGCTCGGAGTCACCTAGTGCAG", "binding signal": "3380 fluorescence intensity (a.u.)"}
{"sequence": "TGAGTTGTGATATATTAATTGAGTTTGGGCAGGCATGGCCCGGAGTCACCTAGTGCAG", "binding signal": "7790 fluorescence intensity (a.u.)"}
{"sequence": "TTAAATTATATAAATTTATAGAAATTCATGATCAAAGATTCGGAGTCACCTAGTGCAG", "binding signal": "22400 fluorescence intensity (a.u.)"}
{"sequence": "CCATTAATTAAGAGTACCATATATATATATATATACAGTGCGGAGTCACCTAGTGCAG", "binding signal": "18600 fluorescence intensity (a.u.)"}
{"sequence": "CTATAATTATGATGTGGCTTTATGAGAGAAGATAAATTAGCGGAGTCACCTAGTGCAG", "binding signal": "23500 fluorescence intensity (a.u.)"}
{"sequence": "GCCTTGCAGGATTGGCCAATTTAATTTATGGGCCTTCCACCGGAGTCACCTAGTGCAG", "binding signal": "16600 fluorescence intensity (a.u.)"}
{"sequence": "TTTGATTTGGAGGAAGAGGAGAGGGTGGTGTTAGGTGAAACGGAGTCACCTAGTGCAG", "binding signal": "12400 fluorescence intensity (a.u.)"}
{"sequence": "ACGAGTACTACTGTGATTAGAAATCTCGGCCCATAGAAAGCGGAGTCACCTAGTGCAG", "binding signal": "3430 fluorescence intensity (a.u.)"}
{"sequence": "CATAAGTGATGATCACATCCAAGCTGCCATGGCCAATTGCCGGAGTCACCTAGTGCAG", "binding signal": "5540 fluorescence intensity (a.u.)"}
{"sequence": "ATCCAATCTATGCTAAATGGACTAGGGTTTTACCTCACTCCGGAGTCACCTAGTGCAG", "binding signal": "12000 fluorescence intensity (a.u.)"}
{"sequence": "AGTTAATACAGCTGATTAGCAATGCAGCTTAACCAAAGTACGGAGTCACCTAGTGCAG", "binding signal": "10500 fluorescence intensity (a.u.)"}
{"sequence": "TATGATTTGCGGTCATTGGCAAAGTTGACTTTATTACTAACGGAGTCACCTAGTGCAG", "binding signal": "36600 fluorescence intensity (a.u.)"}
{"sequence": "CGATGACATTAAAATTAAATTTTAGGTAAAATATTATATTCGGAGTCACCTAGTGCAG", "binding signal": "9200 fluorescence intensity (a.u.)"}
{"sequence": "CTAAAAGTAATTTATATATATGATAAAAGTAACTTAAGTACGGAGTCACCTAGTGCAG", "binding signal": "4920 fluorescence intensity (a.u.)"}
{"sequence": "TAAATCAGTTTGACTTTGATTAAACTCAAAACGTCTTATACGGAGTCACCTAGTGCAG", "binding signal": "11300 fluorescence intensity (a.u.)"}
{"sequence": "ATAATCATAATTATATTTTAAAGTTCAACATGTAAGCATGCGGAGTCACCTAGTGCAG", "binding signal": "26500 fluorescence intensity (a.u.)"}
{"sequence": "TACTGAAATAATTATTGAACGTAGAAATTTTGGATCTGTTCGGAGTCACCTAGTGCAG", "binding signal": "10400 fluorescence intensity (a.u.)"}
{"sequence": "TACTCTAAATTGGATAGACATTTCTTACAGTGTACCGACACGGAGTCACCTAGTGCAG", "binding signal": "24100 fluorescence intensity (a.u.)"}
{"sequence": "TATTAAACGAATTATCACAAAATTATAGATTTATCATGTTCGGAGTCACCTAGTGCAG", "binding signal": "3760 fluorescence intensity (a.u.)"}
{"sequence": "GTAAATTGCAAGACAAATCTTTTAAACCTAGTTGTGTCATCGGAGTCACCTAGTGCAG", "binding signal": "20500 fluorescence intensity (a.u.)"}
{"sequence": "ACCTGGATTGAGTTTTGTGCATGAATTTGAGTGGTAAGGGCGGAGTCACCTAGTGCAG", "binding signal": "4600 fluorescence intensity (a.u.)"}
{"sequence": "ATGATAATTAAAGTTGTAGGTGGTATGACCTTAATTAGTTCGGAGTCACCTAGTGCAG", "binding signal": "16900 fluorescence intensity (a.u.)"}
{"sequence": "TCTAATTGCAGACATGCTTGGCTTCATGCATTGAACAGGTCGGAGTCACCTAGTGCAG", "binding signal": "20300 fluorescence intensity (a.u.)"}
{"sequence": "GTCCAAACTTTGACATCTCAATCTTCACCGAAACAGCAAACGGAGTCACCTAGTGCAG", "binding signal": "3860 fluorescence intensity (a.u.)"}
{"sequence": "ATTGCATGCAACTAATTGAGACTTCCTTTGAAATGGGGTGCGGAGTCACCTAGTGCAG", "binding signal": "7120 fluorescence intensity (a.u.)"}
{"sequence": "AACAGTTGAATGACTAATTATACCCGGTTTTATATGGATGCGGAGTCACCTAGTGCAG", "binding signal": "14800 fluorescence intensity (a.u.)"}
{"sequence": "ATTTTGGTTGATTTGTAAACAGAGGGATTAATTTGTGCATCGGAGTCACCTAGTGCAG", "binding signal": "15400 fluorescence intensity (a.u.)"}
{"sequence": "ATTTTGATGATCAGCGGTCTAGATTTACCGCTACAATGATCGGAGTCACCTAGTGCAG", "binding signal": "3930 fluorescence intensity (a.u.)"}
{"sequence": "ATGTTTGATTTTAAAATCTCAATGACAATAAAGAAGGGTGCGGAGTCACCTAGTGCAG", "binding signal": "9130 fluorescence intensity (a.u.)"}
{"sequence": "TTTGATTTGACACTTGTTTTGTATCATCTATAGGCATAGGCGGAGTCACCTAGTGCAG", "binding signal": "36300 fluorescence intensity (a.u.)"}
{"sequence": "CGATGTTAAATTGTTAATCTACCAGCAGCTCCAAATTCAACGGAGTCACCTAGTGCAG", "binding signal": "3510 fluorescence intensity (a.u.)"}
{"sequence": "TAAATTGAGGGATGACATATATCTTGTTTTACGGTTGGGGCGGAGTCACCTAGTGCAG", "binding signal": "13500 fluorescence intensity (a.u.)"}
{"sequence": "TCAACTAACAATAATTACATATTTAATCGTAGAAGCATACCGGAGTCACCTAGTGCAG", "binding signal": "8390 fluorescence intensity (a.u.)"}
{"sequence": "TTACTATATGATTAAGATTTTGTTATGAAATTGGCAGCTTCGGAGTCACCTAGTGCAG", "binding signal": "8420 fluorescence intensity (a.u.)"}
{"sequence": "CAGCATTTGTGATTGGGTAGTATGGGTTGCTCGATCTTTCCGGAGTCACCTAGTGCAG", "binding signal": "15000 fluorescence intensity (a.u.)"}
{"sequence": "AGATGGATTGAAAATAATGTGAATAAATATACATGAAATCCGGAGTCACCTAGTGCAG", "binding signal": "7890 fluorescence intensity (a.u.)"}
{"sequence": "AATAATAATTATAAAATTACTTAAAATAAGATGGATAATCCGGAGTCACCTAGTGCAG", "binding signal": "23700 fluorescence intensity (a.u.)"}
{"sequence": "GATGTATAATTTGTCCTGCATTTTCTGAAGGGATTCGTGGCGGAGTCACCTAGTGCAG", "binding signal": "5310 fluorescence intensity (a.u.)"}
{"sequence": "TTGCAATTGCTGATTGTACATCTGAAATGGTTTCCTTTTGCGGAGTCACCTAGTGCAG", "binding signal": "14000 fluorescence intensity (a.u.)"}
{"sequence": "ATAATGAAATTTCATAGGGGAGGGGCTGGGCTTTATAGGGCGGAGTCACCTAGTGCAG", "binding signal": "4610 fluorescence intensity (a.u.)"}
{"sequence": "CAAGAAATGACTTAATTAGAAAACCTCTTTGGAGCACCCACGGAGTCACCTAGTGCAG", "binding signal": "11000 fluorescence intensity (a.u.)"}
{"sequence": "ATGCGAGCATAATTAATTGAGTTTTAATTATTTCAAACTTCGGAGTCACCTAGTGCAG", "binding signal": "14100 fluorescence intensity (a.u.)"}
{"sequence": "GAGATTTAATTTTGATTGGAATGCATATTCAGAATACTATCGGAGTCACCTAGTGCAG", "binding signal": "44200 fluorescence intensity (a.u.)"}
{"sequence": "CATATAAATTGCGAGACGAATCTCTTGAGCCTAATTACGCCGGAGTCACCTAGTGCAG", "binding signal": "12300 fluorescence intensity (a.u.)"}
{"sequence": "CAAAACAATTATTGGGCCAAGACATTTCCCTTGATGGGATCGGAGTCACCTAGTGCAG", "binding signal": "15000 fluorescence intensity (a.u.)"}
{"sequence": "AGTTGCATTATTAATCACATCCACTGATATAACGATTTTGCGGAGTCACCTAGTGCAG", "binding signal": "3970 fluorescence intensity (a.u.)"}
